According to the supplement of paper PMC11417369:
± gives the standard deviation of the averaged measurements. Some of the results follow.

Tested on: PfAP2-I AP2 domain 3 (GST-tagged)
Test: gcPBM binding intensity (ln(normalized median fluorescence intensity)); higher = stronger DNA binding
In short: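 Alexa488 anti-GST antibody, scanned at 488 nm, detected GST-tagged P. falciparum DNA-binding domains that had been expressed in E. coli and incubated for 1 h on an Agilent 4 × 180k array. The array carried primer-extended double-stranded 36-bp intergenic genomic probes and negative controls. Binding intensity is the highest Masliner-normalised natural-log median intensity across replicate spots of either orientation of each probe.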

First: TATATTATATGTATTGCACACCTTCAACAACTACTT [CACACA_site8121]
Second: ATACATATATATGTGTGTACATATGTGTATACATTT [XGTACX_site6544]
The “gcPBM binding intensity (ln)” value of the first is higher: 10.3 ± 0.23 for the first, 7.96 ± 0.45 for the second.

“TTTTATAAATCTAAACGTATCTAAATGAATAATTAA [GTGCAC_negctrl_site44]” and “ATATGTATTAAGTGTACACATATAATGGGTTTGTTA [CACACA_site5682]” are within error of each other in “gcPBM binding intensity (ln)” value: 7.37 ± 0.48 for the first, 7.96 ± 0.45 for the second.

Compared with ATATATGTACAAATTGTGCGCAATAATTTTGTCTTT, “TCTTTATGTAAGGTCTTCCACAAAAAAATTAAAAAA [TGCATGCA_negctrl_site229]” is lower in “gcPBM binding intensity (ln)” value: 9.06 ± 0.33 for the first, 7.79 ± 0.41 for the second.

First: GAAAAATTAATAAATAAACACACATATATATATATA [CACACA_site8835]
Second: ATATATTATAGAGGTGTGCACTACATACATTATAAT [GTGCAC_site9991]
The “gcPBM binding intensity (ln)” value of the first is lower: 9.68 ± 0.57 for the first, 10.9 ± 0.4 for the second.

“ATAGAAACATATTGACGTACAGTATAATAATACAGT [XGTACX_site197]” and “AAATCAACTTATTTTTGTACATATATTTATTATATA [XGTACX_site2925]” are the same in “gcPBM binding intensity (ln)” value: 8.16 ± 0.42 for the first, 8.16 ± 0.36 for the second.

“GAATACATAATAACATGTACACACATTCTTCTATAA [XGTACX_site8725]” and “TATATATATAGAAATGCATGTTAATAAAAGTTATAA [TGCATGCA_site947]” are within error of each other in “gcPBM binding intensity (ln)” value: 7.89 ± 0.58 for the first, 8.56 ± 0.67 for the second.

“TATCATAAAAAATATACACACAAAGGATATTTATAT [CACACA_site6841]” and “TATGAACACCAACACACACACAAAAAAAAAAAAAAA [CACACA_site2013]” are within error of each other in “gcPBM binding intensity (ln)” value: 7.69 ± 0.81 for the first, 8.1 ± 0.38 for the second.

“TATATATTTAATTTCACACATATATATAATTATTAT [CACACA_site4936]” and “TTTTTTATTTTAAAAACATGCATAAAATATAATAGT [TGCATGCA_site762]” are within error of each other in “gcPBM binding intensity (ln)” value: 7.71 ± 0.4 for the first, 8.16 ± 0.45 for the second.

“AGATAAAAAAAGTACACACACACATATATTTATATA [CACACA_site7437]” and “ATACACACTTAAAAAAGTACTTAACTACATGAATTG [XGTACX_site1203]” are within error of each other in “gcPBM binding intensity (ln)” value: 7.98 ± 0.2 for the first, 7.77 ± 0.54 for the second.

“ATATTATATATAAAATGTACATTTAAAAATATTATA [XGTACX_site889]” and “TTGTTTTCTTATTATTACTACAATACTTAAGTCAGA [TGCATGCA_negctrl_site184]” are within error of each other in “gcPBM binding intensity (ln)” value: 7.54 ± 0.23 for the first, 7.8 ± 0.39 for the second.

“TATTTATTTATGGACACACATACAAATCTTCCAGAC [CACACA_site942]” and “TAATCATAACTTGATACGCACACGTTATATAAATAA [CACACA_site1579]” are the same in “gcPBM binding intensity (ln)” value: 7.92 ± 0.43 for the first, 7.92 ± 0.3 for the second.

Going from “TTTTTTTTTTTTTAAACATGCATAATAAATATAATA [TGCATGCA_site265]” to “TTTTTTATTTTGTGCACACACATAAAAATATATATA [CACACA_site761]”, the “gcPBM binding intensity (ln)” value rises from 8.19 ± 0.86 to 11.2 ± 0.31.

“TTTTGTTGGATACAAAAATTACAAATTATTTAAAAA [TGCATGCA_negctrl_site532]” and “TTTTTCAGAAAAGAAACACACATATTTATATTTATA [CACACA_site7167]” are within error of each other in “gcPBM binding intensity (ln)” value: 7.54 ± 0.43 for the first, 7.51 ± 0.48 for the second.

“TATATGTATATATATTAACACACAAAAAAAAAAAAA [CACACA_site8534]” and “TAAACAAATAAATAAACACACAATATCTGTATTTAT [CACACA_site5978]” are within error of each other in “gcPBM binding intensity (ln)” value: 8.1 ± 0.64 for the first, 7.46 ± 0.55 for the second.

“ATTAAATCGATATATACACACATGTTTGGTATATTC [CACACA_site7285]” and “TTAAAATAAAGTAGTGGTACAAAAAAAAAAAAAAAA [XGTACX_site6322]” are within error of each other in “gcPBM binding intensity (ln)” value: 7.58 ± 0.61 for the first, 8.12 ± 0.65 for the second.

“TAACCTATAATATTCACACACATATAAATATTATAG [CACACA_site6592]” and “TTTTACTTAAAACACACACACACAAAAAAAAAAAAA [CACACA_site947]” are within error of each other in “gcPBM binding intensity (ln)” value: 7.76 ± 0.3 for the first, 8.1 ± 0.54 for the second.

First: AGTAATAGTTTGTGCACACTCAAGTATATCATATAT [CACACA_site4034]
Second: AAAAAAAATATAATATGTACATATCTATATATCAAC [XGTACX_site4881]
The “gcPBM binding intensity (ln)” value of the first is higher: 10.9 ± 0.24 for the first, 7.83 ± 0.46 for the second.

“TATACATATGAAAATACACACATACATACAGATATA [CACACA_site5002]” and “AACAAATATATATGTAGTACATGTTGTAGATAATTT [XGTACX_site24]” are within error of each other in “gcPBM binding intensity (ln)” value: 7.65 ± 0.31 for the first, 7.93 ± 0.41 for the second.

“TTTTTTTTTTTAAATTCACACAATATATAAATATTG [CACACA_site5201]” and “AGAAAAATTATTTTGCGTACATATTTACAATAAAAA [XGTACX_site2144]” are within error of each other in “gcPBM binding intensity (ln)” value: 7.82 ± 0.76 for the first, 7.96 ± 0.44 for the second.

Going from “TACGTAAAATAATTGAGTACATAATTATATATATAT [XGTACX_site5361]” to “AAAAATAATCATTAGGTGCAAAAAATATATATATAT [GTGCAC_site9631]”, the “gcPBM binding intensity (ln)” value rises from 9.17 ± 0.071 to 10.5 ± 0.15.

“GTACATTATTTATATACACACAAAGAAAAATATACA [CACACA_site3452]” and “TTTAAAATATATAGTACACACGTGAACACAAATACA [CACACA_site4392]” are within error of each other in “gcPBM binding intensity (ln)” value: 7.95 ± 0.46 for the first, 7.96 ± 0.32 for the second.

Going from “TAAAGCATATTATAAACACACACTGTATAAAGATAT [CACACA_site296]” to “CCTTTTTTGTTTTATGCACACCATATAACCAAGGCT [CACACA_site7893]”, the “gcPBM binding intensity (ln)” value rises from 7.78 ± 0.76 to 10.5 ± 0.48.
